# Test results reported in US9493727B2 (priority 2010, dated 2016).
# Like-named read-outs stand apart in the source and are kept apart here.
# Design: key to Nonionic 24 h, emulsion stability, mL separation / Nonionic 1 h, emulsion stability, mL separation: D = dispersable; S = soluble; I = insoluble; Tr = trace; Floc = flocculation observed
# Procedure: Surfactant candidates for water soluble herbicide applications are examined as a replacement for the anionic, nonionic, or anionic/nonionic blend portion and compared to a known industry adjuvant standard for use in paraquat, a water soluble herbicide concentrate formulation. A standard dilution test is conducted whereby the concentrates are diluted in water to determine if solubility is complete.
# A known industry paraquat adjuvant (2.8 g) is added and vigorously mixed for 30 s. Deionized water (8.07 g) is added, and mixing resumes for 30 s. Standard 342 ppm water (47.5 mL) is added to a 50-mL Nessler cylinder, which is stoppered and equilibrated in a 30° C. water bath. Once the test water equilibrates, the formulated paraquat (2.5 mL) is added by pipette into the cylinder. The cylinder is stoppered and inverted ten times. Solubility is recorded as complete or incomplete. Cylinders are allowed to stand and the amount (in mL) and type of separation are recorded after 30 min., 1 h, 2 h, and 24 h. Results of the solubility testing appear in Table 5 below.
# Anionic test sample: Paraquat (4.57 g of 43.8% active material) is added to a 20-mL glass vial. An eight to ten mole alkyl phenol ethoxylate surfactant (0.7 g) is added and vigorously mixed for 30 s. Test sample (0.7 g) is added and mixing resumes for 30 s. Deionized water (4.03 g) is added, and mixing resumes for 30 s.
# Nonionic test sample: Paraquat (4.57 g of 43.8% active material) is added to a 20-mL glass vial. Test sample (0.7 g) is added and vigorously mixed for 30 s. Sodium linear alkylbenzene sulfonate (“NaLAS,” 0.7 g) is added and mixing resumes for 30 s. Deionized water (4.03 g) is added, and mixing resumes for 30 s.
# Adjuvant (anionic/nonionic) test sample: Paraquat (4.57 g of 43.8% active material) is added to a 20-mL glass vial. Test sample (1.4 g) is added and vigorously mixed for 30 s. Deionized water (4.03 g) is added, and mixing resumes for 30 s.
# [1] = test sample replaces nonionic portion, 24 h
# [2] = test sample replaces nonionic portion, 1 h
Compound,"Nonionic 24 h, emulsion stability, mL separation [1]","Nonionic 1 h, emulsion stability, mL separation [2]","Adjuvant 1 h, emulsion stability, mL separation [mL]","Adjuvant 24 h, emulsion stability, mL separation [mL]","Anionic 1 h, emulsion stability, mL separation [mL]","Anionic 24 h, emulsion stability, mL separation [mL]","Nonionic 1 h, emulsion stability, mL separation [mL]","Nonionic 24 h, emulsion stability, mL separation [mL]"
"C[N+](C)([O-])CCCNC(=O)CCCCCCC/C=C/CCCCCCCC(=O)NCCC[N+](C)(C)[O-] [Mix-29, C18 DiDMAPA DiAO]",Tr,,,,,,,
"C[N+](C)([O-])CCCNC(=O)CCCCCCCCC(CCCCCCCC(=O)NCCC[N+](C)(C)[O-])S(=O)(=O)[O-].[Na+] (centres unmarked) [Sample C18-30, C18 DiDMAPA DiAO Sulfonate]",Tr,Tr,,,,,,
"CN(C)CCCNC(=O)CCCCCCCCC(CCCCCCCC(=O)NCCCN(C)C)S(=O)(=O)[O-].[Na+] (centres unmarked) [Sample C18-68, C18 diDMAPA Amide Sulfonate]",Tr,Tr,,,,,,
C10 DMAPA AO Sulfonate [Sample C10-21],,,0,0,0,0,0.25,0.5
MTG DMAPA AO [MTG-12],,,0,0,0,0,0,0
